For part of its entries the source gives two or more results. Only these are listed. There may be further records. The records of an entry are repeated measurements in other runs, samples, wells, individuals or studies. Signs of the kind (2×) say how often a value occurs here.
Tested on: OVCAR-5 complex spheroids with HUVEC/MSC, viability, % test/control
Test: Anticancer human tumor OVCAR-5 cell line growth inhibition [AhR];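 also: spheroids exposed to compounds for 7 days; 100% = DMSO vehicle control wells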
Details: compound alone 10 µM; stronger effect = lower value
From the text: Multicellular complex tumor spheroid response to aryl hydrocarbon receptor antagonists in combination with a variety of drugs and investigational agents in selected tumor cell lines
The current study was undertaken to assess response to aryl hydrocarbon receptor antagonists in combination with standard-of-care drugs and investigational agents in solid tumor complex spheroid models. Complex spheroids include a stromal component modeled by human endothelial cells (HUVEC) and fibroblasts modeled by human mesenchymal stem cells (MSCs). The concentration ranges selected for each drug and investigational agent were based upon clinically achievable concentrations if the clinical Cmax of the agent was known.
Compounds. […] If the clinical Cmax for an agent had not been determined, the highest concentration tested was 10 microM (Table 1). […]

Cc1cncc(-c2nc(NCCc3c[nH]c4ccccc34)c3ncn(C(C)C)c3n2)c1
viability, T/C: 29.3, 14.6, 11.2, 16 (2×), 15.2, 21.2, 12.8, 11.8, 10.6, 14.1, 17.4, 15.6, 17.6, 18.6, 25.2, 4.2, 12.5, 18.7, 20.6, 22%

— PubChem BioAssay AID1919015 (Molecular Pharmacology Branch, DTP, NCI, 2023)
